This note sets out measurements from PMC6919601, “Identification of Plasmodium dipeptidyl aminopeptidase allosteric inhibitors by high throughput screening” (PLoS ONE, 2019).

“And” between values parts separate entries of the source, which are not always exact repeats. Identical values can stand only once. About 230 (0.21%) of roughly 110,000 compounds showed an effect of 50% or more. The list shows a part of the results.
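Also: 30 min substrate incubation versus DMSO and 10 µM JCP410 controls.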

The target of this experiment is DPAP1 (Plasmodium falciparum, UniProt Q8IIJ9). Description: primary screen, percent inhibition; read by cleavage of a fluorogenic dipeptide substrate; higher = more effect of the substance. On the set-up: species or system P. falciparum D10 trophozoite lysates; single well.
Sequence of DPAP1 (Q8IIJ9 whole entry, looked up): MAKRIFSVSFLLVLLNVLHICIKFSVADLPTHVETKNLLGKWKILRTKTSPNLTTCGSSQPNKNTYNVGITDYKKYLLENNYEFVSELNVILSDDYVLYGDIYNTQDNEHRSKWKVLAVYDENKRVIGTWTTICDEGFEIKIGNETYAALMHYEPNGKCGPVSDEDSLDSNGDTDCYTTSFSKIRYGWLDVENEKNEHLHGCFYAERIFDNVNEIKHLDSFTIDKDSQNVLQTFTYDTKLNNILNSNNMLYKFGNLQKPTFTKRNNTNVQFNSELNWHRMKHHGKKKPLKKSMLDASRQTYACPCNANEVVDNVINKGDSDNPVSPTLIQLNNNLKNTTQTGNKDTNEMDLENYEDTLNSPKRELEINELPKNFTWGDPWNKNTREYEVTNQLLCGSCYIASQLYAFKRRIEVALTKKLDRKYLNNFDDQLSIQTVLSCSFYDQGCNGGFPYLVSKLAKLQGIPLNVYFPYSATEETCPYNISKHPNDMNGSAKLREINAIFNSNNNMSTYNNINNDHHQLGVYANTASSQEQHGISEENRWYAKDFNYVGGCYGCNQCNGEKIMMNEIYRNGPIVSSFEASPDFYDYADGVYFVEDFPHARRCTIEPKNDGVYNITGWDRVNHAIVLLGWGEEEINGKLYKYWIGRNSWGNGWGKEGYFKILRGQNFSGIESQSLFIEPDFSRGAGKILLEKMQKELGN
Turning to `CCOc1ccccc1CNC(=O)CCn1nc(C)c2c(C)n(-c3ccccc3)nc2c1=O`, the “% Inhibition @ 10 uM” value amounted to 0.227%. For `CCOCCCNC(=O)CCn1ccc2cc(S(=O)(=O)N3CCCC3)ccc21` the value was 2.65%.

For the molecule `Cc1nc2ccc(S(=O)(=O)NC(C(=O)NCCc3ccccc3)C(C)C)cc2s1` (stereo not drawn), the “% Inhibition @ 10 uM” value is recorded as -0.0115%. For `Cc1cccc(NC(=O)c2cccc(C)c2)c1` the value was 6.18%; for `CC(C(O)c1ccc2ccccc2c1)N1CCCCC1` (stereo not drawn), -3.8%; for `CC1(C)CC2=Nc3ccccc3NC(c3ccc([N+](=O)[O-])cc3)C2=C(O)C1` (stereo not drawn), 0.467%. With `CCc1ccc(/C=C/C(=O)c2c(C)cc(C)nc2O)cc1` the figure was 1%.

Consider `Cc1sc(NC(=O)C2C3C=CC(CC3)C2C(=O)O)c(C(N)=O)c1C` (stereo not drawn), for which the “% Inhibition @ 10 uM” value is recorded as -8.68%.

Turning to `C/N=C1/c2c(C)c3cc(OC)ccc3n2CCN1C`, the “% Inhibition @ 10 uM” value is 4.18%. For `O=C(O)c1ccccc1C(=O)NCc1cccnc1` the value was -0.615%; for `CCC(=O)Nc1ccc(S(=O)(=O)N2CCCCCC2)cc1`, -2.54%; for `COc1ccc(N2C(=O)CC(Sc3ccc(Cl)cc3)C2=O)c(OC)c1` (stereo not drawn), -1.26%. As to `CC(=O)NC12CC3CC(C1)CC(n1ncc(NCc4ccccc4)c(Cl)c1=O)(C3)C2`, the “% Inhibition @ 10 uM” value was 6.37%. With `COc1ccc(-c2c3c(=O)n(C)c(=O)n(C)c3cn2C2CCCCCC2)cc1` the figure was -1.35%; with `COc1ccc(C2C(C(C)=O)=C(O)C(=O)N2CCc2c[nH]c3ccccc23)cc1OC` (stereo not drawn), -3.95%; with `Clc1cccc2c(N3CCN(Cc4ccc5c(c4)OCO5)CC3)cnnc12`, -3.45%.

Turning to `Cc1[nH]nc2c1C(c1ccc(C(F)(F)F)cc1)C(C#N)=C(N)O2` (stereo not drawn), the “% Inhibition @ 10 uM” value was determined as 3.05%.

As to `OC1CCN(Cc2ccc(F)c(F)c2)C1` (stereo not drawn), the “% Inhibition @ 10 uM” value is on record as 3.48%. With `COc1ccc(OC)c(-c2cc(C(=O)Nc3ccncc3)c3ccccc3n2)c1` the figure was 4.98%.

`CCC(Sc1nc2ccncc2[nH]1)C(=O)NCc1ccc(C)cc1` (stereo not drawn): the “% Inhibition @ 10 uM” value is recorded as 8.62%. `CSc1ccc(CN2CCCC(C(N)=O)C2)cc1` (stereo not drawn): the “% Inhibition @ 10 uM” value was -7.02%.

In the case of `CC1=C(C(=O)Nc2ccccc2F)C(c2ccc(Br)cc2)C2=C(O)CCCC2=N1` (stereo not drawn), the “% Inhibition @ 10 uM” value was 1.82%. With `Cc1cc(OCC(=O)Nc2ccc3oc(-c4cccnc4)nc3c2)ccc1Cl` the figure was -1.55%; with `Cc1cccc(OCCCC(=O)Nc2ccccc2F)c1`, -3.45%. With `NC(=O)C1CCCN(Cc2ccc3ccccc3c2)C1` (stereo not drawn) the figure was -1.64%; with `O=C(NCCCCc1ccccc1)Nc1cccc(Cl)c1`, -0.0404%. For `COC(=O)c1oc2ccc(Cl)cc2c1N` the value was -7.23%; for `Cc1cc(CNC(=O)c2cccnc2Cl)c2ccccc2n1`, -4.04%. Turning to `Cn1c(=O)[nH]c(=O)c2c1nc(SCCc1ccccc1)n2Cc1ccc(Cl)cc1`, the “% Inhibition @ 10 uM” value is -0.053%. With `Oc1nc(CN2CCN(c3cccc(Cl)c3)CC2)nc2ccccc12`, the “% Inhibition @ 10 uM” value is recorded as -2.34%.

In the case of `COc1cccc(CCNC2CCc3ccccc3C2)c1` (stereo not drawn), the “% Inhibition @ 10 uM” value is reported as -5.31%.

For the molecule `COc1ccc(N(CC(=O)NCc2ccc(Cl)cc2)S(C)(=O)=O)cc1Cl`, the “% Inhibition @ 10 uM” value amounted to 1.49%.

As to `COc1ccc2nc(C)c3c(c2c1)SC(C)C3` (stereo not drawn), the “% Inhibition @ 10 uM” value is on record as 4.88%. With `COC(=O)CN1CCN(C(c2ccccc2)c2ccccc2)CC1` the figure was -2.63%. For `CC(CCc1ccco1)NC(=O)Cn1ncc2ccccc21` (stereo not drawn) the value was 4.84%; for `Cc1ccc2cc(C)c(N3CCC(C)CC3)nc2c1`, 5.2%.

With `COc1cc2c(cc1C)C(=O)C(C1(O)C(=O)Nc3ccccc31)CC2` (stereo not drawn), the “% Inhibition @ 10 uM” value is -2.99%. With `CCOc1ccc(C(=O)CC(=O)C(=O)NCc2ccc(F)cc2)cc1` the figure was 4.01%. As to `O=C(O)C1c2ccccc2C(=O)N(Cc2ccc(F)cc2)C1c1ccc(O)c(O)c1` (stereo not drawn), the “% Inhibition @ 10 uM” value is -0.795%. With `COc1ccc(-c2cc(C(=O)N3C(C)CCCC3C)no2)cc1` (stereo not drawn), the “% Inhibition @ 10 uM” value came to 1.37%.

With `CCC1COC(c2cccn2Cc2cc(C)ccc2C)=N1` (stereo not drawn), the “% Inhibition @ 10 uM” value is given as -7.21%. For `Oc1nncc2c3ccccc3n(Cc3ccccc3F)c12` the value was -3.53%.

`C1=C2C3CCCCC3OC(c3cccnc3)C2CCC1` (stereo not drawn): the “% Inhibition @ 10 uM” value was found to be 4.62%. For `Cc1nc2c(c(C)nn2C)c(C)c1CCC(=O)NC1CCCCCC1` the value was 4.14%. For the molecule `Cc1ccc(Cn2cc(CCC(=O)NCCN3CCCC3)c3ccccc32)cc1`, the “% Inhibition @ 10 uM” value was 3.02%. `Cc1ccc(C)c(NC(=O)c2cc[n+](C)cc2)c1`: the “% Inhibition @ 10 uM” value is -0.864%. Take `CC(C)NC(=S)N1CCn2c(nc3ccccc32)C1`: the “% Inhibition @ 10 uM” value is recorded as -2.88%. Turning to `Cc1ccc2c(c1)-c1c(cnn1CC(=O)N1CCN(C(=O)c3ccco3)CC1)CO2`, the “% Inhibition @ 10 uM” value worked out at 1.31%. For `CC(NC(=O)CCCn1ncn2c(cc3occc32)c1=O)c1ccccc1` (stereo not drawn) the value was -7.54%; for `O=C(NCC1CCCO1)c1cc(S(=O)(=O)N2CCCC2)c(Cl)cc1Cl` (stereo not drawn), 0.413%.

Regarding `CC1=CC2=NC(=O)/C(=C\c3ccc(OCCOc4ccccc4Cl)cc3)C(=N)N2O1`, the “% Inhibition @ 10 uM” value was -3.23%.

As for `CCn1cc(Cl)c(C(=O)Nc2cc3oc4ccccc4c3cc2OC)n1`, the “% Inhibition @ 10 uM” value is recorded as 4.65%.

In the case of `Cc1ccc(-c2nc3cc(NC(=O)C(C)C)ccc3o2)cc1`, the “% Inhibition @ 10 uM” value is -2.89% and -3.94%.

With `CCOC(=O)c1nnn(-c2nonc2N)c1CS(=O)(=O)c1ccccc1`, the “% Inhibition @ 10 uM” value is recorded as 4.84%. In the case of `O=C(O)CCCS(=O)(=O)c1nc(-c2cccs2)cc(C(F)(F)F)n1`, the “% Inhibition @ 10 uM” value stood at 11.6%. As to `O=C(NCCc1ccc(Cl)cc1)C1CCCO1` (stereo not drawn), the “% Inhibition @ 10 uM” value was -0.834%. For `CN(C)C(=N)c1[nH]nnc1SCc1ccccc1` the value was -5.14%; for `Cc1cc(NC(=O)CSc2ccccc2)ccc1Cl`, 4.08%. For `COCCNC(=O)c1ccc2c(c1)ncn2C1CCCC1` the value was 2.05%. `CN1CCN(C(=O)c2cnn3c(C(F)(F)F)cc(-c4cccs4)nc23)CC1`: the “% Inhibition @ 10 uM” value was -1.2%. `CC(C)Oc1ccc(NC(=O)COc2cccc(Cl)c2)cc1`: the “% Inhibition @ 10 uM” value is recorded as -1.63%. With `CCCOc1ccc(-c2nonc2NC(=O)c2ccc(F)cc2)cc1OCCC` the figure was -5.08%; with `CCOc1ccc(CCNS(=O)(=O)c2ccc3ncc(C(=O)O)c(O)c3c2)cc1OCC`, -0.601%; with `CCc1ccccc1NS(=O)(=O)Cc1ccccc1`, -0.8%.

Take `Cc1ccccc1NC(=O)c1c(NC(=O)c2cccnc2)sc2c1CCC2`: the “% Inhibition @ 10 uM” value was 5.53%. On to `COc1ccc(C)cc1NC(=O)CCc1ccccc1`, for which the “% Inhibition @ 10 uM” value was -0.636%.
